Test results: PubChem BioAssay AID504706 (National Center for Advancing Translational Sciences (NCATS), 2011)
Screen size: about 320,000 compounds; about 200 (0.062%) were called active. This list was built around the results that the source calls inconclusive (neither active nor inactive); the mix of calls is not that of the screen. Calls come from the whole dose curve; as a rule, active = well fitted activation curve with a large enough effect; inconclusive = small, poorly fitted or top-dose-only effect; inactive = no such curve, though single readings can be large or run the other way. Potencies of inconclusive entries are left out as doubtful fits.

Experiment: qHTS assay for re-activators of p53 using a Luc reporter; note: nearly all actives have a fitted effect of over 45% in size
Settings: H1299 p53-A138V BP100-luciferase reporter, luminescence, 24 h; series mostly up to 92.2 µM
How it was run: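 p53-null H1299 cells stably carrying temperature-sensitive p53-A138V and a BP100-luciferase reporter were pinned with compounds (4-point, 1:5 series) and held 24 hrs at 37 deg C. Luminescence was read 10 min after detection reagent.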
Potency is the fitted concentration of half-maximal effect; tags give direction and shape of the fitted curve.

Row | Structure (SMILES) | Potency
1 | CCCC(=O)Nc1cccc(-c2cn3ccsc3n2)c1 | inconclusive [activator, single point]
2 | COc1ccccc1C(=O)NNC(=O)C1CC=CCC1 (configuration not stated) | inactive
3 | COc1ccc(NCc2ccc([N+](=O)[O-])s2)c(OC)c1 | inconclusive [activator, single point]
4 | CN(C(=O)NC(=O)C1=C(N2CCOCC2)/C(=C/c2ccccc2)CC1)S(C)(=O)=O | inconclusive [activator, partial curve, poor fit]
5 | CCn1c(SCC(=O)N2CCc3ccccc32)nnc1-c1c[nH]c2ccccc12 | inconclusive [activator, single point]
6 | Nc1nonc1-c1noc(CCCN2C(=O)c3ccccc3C2=O)n1 | inactive
7 | C=CCc1cc(/C=C/c2nc(O)c([N+](=O)[O-])c(=O)[nH]2)cc(OC)c1O | inactive
8 | O=C(/C=C/c1ccco1)Nc1cccnc1Cl | inactive
9 | COc1cccc(C(=O)/C=C/Nc2ccc(NC(C)=O)cc2)c1 | inconclusive [activator, full curve, poor fit]
10 | COc1ccc(C)cc1-n1nnnc1SCC(=O)N1CCC(C(=O)Nc2nccs2)CC1 | inconclusive [activator, single point]
11 | Cc1ccc2occ(C(=O)c3ccco3)c(=O)c2c1 | inactive
12 | Cc1ccc(OCC(=O)N2CCc3ccccc32)cc1 | inconclusive [activator, partial curve, poor fit]
13 | O=C(/C=C/c1ccc(Cl)cc1)NCc1ccco1 | inactive
14 | Cc1ncoc1C(=O)Nc1ccc2c(c1)OCCO2 | inconclusive [activator, single point]
15 | CCOC(=O)N1CCN(c2nc3ccccc3nc2C(C#N)C(=O)NCCc2ccccc2)CC1 (configuration not stated) | inactive
16 | CCC(=O)NCCc1nc2cc(NC(=O)c3ccc(Cl)cc3)ccc2n1C | inconclusive [activator, full curve, poor fit]
17 | CC(C)(C)OC(=O)N1CCC(c2c(C(=O)NCC3CCN(C4CCCC4)C3)cnn2-c2cccc(Cl)c2)CC1 (configuration not stated) | inconclusive [activator, single point]
18 | O=C(CCCOc1ccccc1)N1CCc2ccccc2C1 | inconclusive [activator, full curve, poor fit]
19 | CCNC(=S)N(Cc1cc2c(C)ccc(C)c2[nH]c1=O)C1CCCC1 | inactive
20 | COc1ccc(/C=C/C(=O)c2ccc(O)cc2)cc1 | inconclusive [activator, partial curve, poor fit]
21 | CCN1C(=O)/C(=C/c2ccc(C)o2)N(C)C1=S | inconclusive [activator, single point]
22 | C=CCNc1nc2c3ccccc3n(C(C)=O)c2s1 | inconclusive [activator, partial curve, poor fit]
23 | Cc1nc2ccccc2c(=O)n1/N=C/c1ccccc1Cl | inconclusive [activator, full curve, poor fit]
24 | Cc1ccc(OCC(O)Cn2c(=N)n(CCN3CCCCC3)c3ccccc32)cc1 (configuration not stated) | inconclusive [activator, partial curve, poor fit]

Row | Structure (SMILES) | Potency
25 | COC(=O)c1ccc(C(=O)N=c2sccn2C)cc1 | inconclusive [activator, partial curve, poor fit]
26 | C/C(=N\NC(=O)c1cc(Br)ccc1O)c1ccccn1 | inactive
27 | COc1ccccc1/C=C/C=N/NC(=O)CN1CCN(S(=O)(=O)c2ccc(C)cc2)CC1 | inactive
28 | CCc1noc(C)c1C(=O)NCCN1C(=O)S/C(=C\c2ccc(OC)cc2)C1=O | inconclusive [activator, single point]
29 | CC(=O)N1CCOc2ccc(S(=O)(=O)NCCc3ccccc3)cc21 | inconclusive [activator, single point]
30 | CC(=O)Nc1ccc(C(=O)COC(=O)CCc2ccccc2)c(F)c1 | inactive
31 | CCOc1ccc(N/C=C/C(=O)c2ccc3ccccc3c2)c([N+](=O)[O-])c1 | inactive
32 | C=CCN=C1NN=C(c2cc(C)n(CCOC)c2C)CS1 | inactive
33 | O=C(Cn1cc(C(F)(F)F)ccc1=O)NCc1ccc(F)cc1 | inconclusive [activator, full curve, poor fit]
34 | O=C(COC(=O)c1c2c(nc3ccccc13)CCCC2)Nc1ccc2c(c1)OCO2 | inactive
35 | COc1ccc(NC(=O)CN2C(=O)CSc3ccc(S(=O)(=O)N4CCCC4)cc32)cc1OC | inactive
36 | O=C(c1cc2cc(Cl)ccc2oc1=O)N1CCN(c2ccccn2)CC1 | inconclusive [activator, single point]
37 | COc1ccc(-c2cc(C(=O)N3CCN(c4ccccn4)CC3)c3ccccc3n2)cc1 | inconclusive [activator, single point]
38 | CCc1c(C)nc2cc(-c3ccc(OC)c(OC)c3)nn2c1N1CCCC1 | inactive
39 | CCn1c(SCC(=O)Nc2nc3ccccc3s2)nnc1-c1ccc(Br)cc1 | inactive
40 | COc1ccc(Cl)cc1NC(=O)CSC1=NN2CCCC(=O)N=C2S1 | inactive
41 | CCOC(=O)Cn1c(=O)n(C2CCCC2)c(=O)c2ccccc21 | inactive
42 | COc1ccccc1NC(=O)N1CCC(c2nc3cc(C)c(C)cc3[nH]2)CC1 | inconclusive [activator, partial curve, poor fit]
43 | CC(=O)c1cnc2c(-c3cccc(Br)c3)cnn2c1C | inconclusive [activator, partial curve, poor fit]
44 | c1cncc(-c2nc3ccccc3o2)c1 | inconclusive [activator, single point]
45 | CCOC(=O)c1ccc2c(c1)n(CC)c(C)[n+]2CC | inactive
46 | COC(=O)c1cnn(-c2nc(-c3ccccc3)cs2)c1N | inconclusive [activator, partial curve, poor fit]
47 | Cc1ccc(-c2noc(-c3ccccc3C(=O)N3CCN(C)CC3)n2)cc1 | inconclusive [activator, partial curve, poor fit]
48 | O=c1c2ccccc2nc(COc2ccccc2)n1/N=C/c1cn[nH]c1-c1ccccc1 | inactive

Row | Structure (SMILES) | Potency
49 | Cc1ccc(C(=O)/C=C/c2cn(CN3CCN(C)CC3)c3ccccc23)cc1 | inconclusive [activator, partial curve, poor fit]
50 | Cc1cc(C)n(-c2nc(C)nc(NCc3ccccc3)n2)n1 | inactive
51 | O=C(CSc1nnc(-c2ccc(OC(F)F)cc2)o1)N1CCOCC1 | inconclusive [activator, partial curve, poor fit]
52 | Cc1cccc(NC(=S)N/N=C/c2ccc(Cl)c([N+](=O)[O-])c2)c1 | inactive
53 | CCC1CCCCN1CCCNC(=O)CN1C(=O)CSc2ccc(S(=O)(=O)N3CCOCC3)cc21 (configuration not stated) | inconclusive [activator, single point]
54 | CCCS/C(N)=N/N=C/c1ccccc1O | inconclusive [activator, partial curve, poor fit]
55 | N#Cc1cc2c(nc1SCC(=O)N1CCOCC1)CCCCC2 | inconclusive [activator, full curve, poor fit]
56 | COCCN(C(=S)Nc1ccc(C)cc1C)C(C)c1ccco1 (configuration not stated) | inactive
57 | Cc1cc2c(=O)n(C)c(SCC(=O)Nc3ccccc3)nc2s1 | inconclusive [activator, partial curve, poor fit]
58 | CCN(CC)c1ccc2cc(C(=O)Nc3ccc(-n4cnnn4)c(OC)c3)c(=O)oc2c1 | inconclusive [activator, single point]
59 | O=c1c2ccccc2nc2c3ccccc3c(NCCN3CCOCC3)nn12 | inactive
60 | COc1ccc(-c2csc(NC(=O)COc3ccc(N(C)S(=O)(=O)c4ccc(C)cc4)cc3)n2)cc1 | inconclusive [activator, single point]
61 | O=C(Nc1ccn(-c2ccccc2)n1)c1ccc(Cl)cc1 | inconclusive [activator, full curve, poor fit]
62 | N#CC1=C(N)OC2=C(C(=O)CCC2)[C@]12C(=O)N(CC(N)=O)c1ccccc12 | inconclusive [activator, single point]
63 | CCC1Sc2ccc(S(=O)(=O)CCC(=O)Nc3c(Cl)cc(OC)cc3OC)cc2NC1=O (configuration not stated) | inconclusive [activator, single point]
64 | COc1ccc(C(=O)N2CCCc3ccccc32)cc1 | inactive
65 | CCCN(Cc1ccccc1)C(=S)Nc1cccc(C)c1C | inactive
66 | CC1=NN(C(N)=S)C(=O)C1N=Nc1ccc(S(N)(=O)=O)cc1 (configuration not stated) | inactive
67 | O=C(NCC1CC1)Nc1ccc(Cl)cc1 | inconclusive [activator, partial curve, poor fit]
68 | COc1cccc(C2=CC(=O)CC(C)(C)C2)c1OC | inactive
69 | O=C(c1cccs1)N1N=C(c2ccccc2)CC1c1ccc(O)cc1 (configuration not stated) | inactive
70 | COC(=O)c1c(C)oc2ccc(NS(=O)(=O)c3cc(OC)ccc3OC)cc12 | inconclusive [activator, full curve, poor fit]
71 | CCOc1ccc(C(=O)NCC(=O)N2CCN(c3ccc(C(F)(F)F)cn3)CC2)cc1 | inconclusive [activator, partial curve, poor fit]
72 | Cc1cc2nc(-c3ccc(NC(=O)C(C)C)cc3)oc2cc1C | inconclusive [activator, partial curve, poor fit]
